# Results: the supplement of paper PMC4604168 (melanoma cell lines)
# Some of the results follow. Most values come without repeats; read them as rough.
# Columns and labels:
# Assay in all cases: cell count relative to DMSO control; melanoma cells; higher = more viable cells
# Conditions in all cases: library dose: low library concentration; 72 h
# COLO792 = tested on: COLO792
# COLO800 = tested on: COLO800
# COLO829 = tested on: COLO829
# G361 = tested on: G361
# IPC-298 = tested on: IPC-298
# IST-MEL1 = tested on: IST-MEL1
# LB2518-MEL = tested on: LB2518-MEL
# LOXIMVI = tested on: LOXIMVI
# MEL-HO = tested on: MEL-HO
# MZ2-MEL = tested on: MZ2-MEL
# MeWo = tested on: MeWo
# RPMI7951 = tested on: RPMI7951
# RVH-421 = tested on: RVH-421
# SkMel28 = tested on: SkMel28
# SkMel30 = tested on: SkMel30
# SkMel5 = tested on: SkMel5
# UACC257 = tested on: UACC257
# UACC62 = tested on: UACC62
# WM115 = tested on: WM115
# WM1716 = tested on: WM1716
# 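Further: cell number obtained by counting DAPI-stained nuclei in high-throughput microscope images with image analysis software, screen run in 1,536-well plates.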
Compound,cell count (COLO792),cell count (COLO800),cell count (COLO829),cell count (G361),cell count (IPC-298),cell count (IST-MEL1),cell count (LB2518-MEL),cell count (LOXIMVI),cell count (MEL-HO),cell count (MZ2-MEL),cell count (MeWo),cell count (RPMI7951),cell count (RVH-421),cell count (SkMel28),cell count (SkMel30),cell count (SkMel5),cell count (UACC257),cell count (UACC62),cell count (WM115),cell count (WM1716)
"O=c1cc(-c2cccc3c2Sc2ccccc2S3)oc(N2CCOCC2)c1 + CC(C)CCN1c2nc(Nc3cc(F)c(O)c(F)c3)ncc2N(C)C(=O)C1C [BID1870] (first compound 1 µM, partner dose 0.2 µM)",91.2%,102%,101%,98.7%,91%,95.1%,121%,126%,96%,94.7%,92.8%,97.2%,129%,82.3%,70.7%,92.6%,92.9%,80.3%,90.7%,111%
"COc1cc2ncnc(Nc3ccc(Oc4ccccc4)cc3)c2cc1OC + O=C1NC(=O)/C(=C/c2ccc(-c3ccc(F)cc3O)o2)S1 [AS252424] (first compound 2 µM, partner dose 1 µM)",98.4%,113%,124%,91.6%,92.3%,105%,,99.7%,117%,,108%,139%,102%,93.3%,82.7%,102%,92.5%,109%,102%,105%
"COc1ccc(COc2ccc(Cc3cnc(N)nc3N)cc2OC)cc1 + CC(C)CCN1c2nc(Nc3cc(F)c(O)c(F)c3)ncc2N(C)C(=O)C1C [BID1870] (first compound 1 µM, partner dose 0.2 µM)",95.7%,88.7%,106%,104%,99.1%,118%,85.3%,114%,94.4%,,114%,116%,121%,90.1%,58%,98.7%,99.9%,103%,96.6%,113%
"COC(=O)c1sccc1S(=O)(=O)Nc1ccc(Nc2ccccc2)cc1OC + COc1ccc(-c2ccc3c(N4CCOCC4)nc(N4C[C@@H](C)O[C@@H](C)C4)nc3n2)cc1CO [KU0063794] (first compound 1 µM, partner dose 0.02 µM)",97%,142%,98.3%,96.4%,92%,95.4%,,126%,104%,,99.5%,93.7%,109%,86.4%,97.3%,95.7%,93.5%,96.2%,92.1%,102%
"O=S(=O)(c1ccccc1)N(CC(F)(F)F)c1ccc(C(O)(C(F)(F)F)C(F)(F)F)cc1 + Cn1cc(/C=C2\C(=O)Nc3cccnc32)c2ccccc21 [GW441756] (first compound 1.4 µM, partner dose 0.4 µM)",101%,114%,78.5%,82.3%,89.2%,102%,117%,103%,93%,92%,103%,114%,89%,92.1%,107%,85.2%,120%,100%,95.9%,101%
"O=S(=O)(c1ccccc1)N(CC(F)(F)F)c1ccc(C(O)(C(F)(F)F)C(F)(F)F)cc1 + CCCCCCCCCCCC1=C(O)C(=O)C=C(O)C1=O [Embelin] (first compound 1.4 µM, partner dose 1.2 µM)",94.2%,85.5%,96.9%,91%,91.3%,108%,104%,94.5%,95.7%,,107%,93.4%,83%,80.8%,84.7%,77.6%,92.2%,96.6%,88.3%,97.2%
"c1cc(-c2cnn3cc(-c4ccc(OCCN5CCCCC5)cc4)cnc23)ccn1 [Dorsomorphin] + CCCCCCCCCCCC1=C(O)C(=O)C=C(O)C1=O [Embelin] (first compound 0.4 µM, partner dose 1.2 µM)",89%,130%,112%,94.8%,94.5%,102%,,91.7%,93%,,101%,108%,122%,90.3%,95.1%,109%,86%,97.7%,102%,122%
"O=C1NC(=O)/C(=C/c2ccc(-c3ccc(F)cc3O)o2)S1 + CCCCCCCCCCCC1=C(O)C(=O)C=C(O)C1=O [Embelin] (first compound 1 µM, partner dose 1.2 µM)",95.7%,91.4%,110%,102%,103%,109%,,98.5%,92.7%,,99.9%,102%,112%,93.8%,130%,105%,94.2%,109%,95.6%,118%
"CCN(CC)CCCCNc1ncc2cc(-c3cc(OC)cc(OC)c3)c(NC(=O)NC(C)(C)C)nc2n1 + COc1cc(N2CCC(N3CCN(C)CC3)CC2)ccc1Nc1ncc(Cl)c(Nc2ccccc2S(=O)(=O)C(C)C)n1 [NVP-TAE684] (first compound 0.1 µM, partner dose 0.08 µM)",108%,84.4%,96.6%,86.3%,105%,102%,,127%,89.4%,,94.8%,75%,81%,96.2%,82.8%,89.7%,103%,92%,106%,104%
